Measured values taken from the supplement of paper PMC11417369.
This is one part of the list.

Test system: PfHDP1 homeodomain (GST-tagged)
Test: gcPBM binding intensity (ln(normalized median fluorescence intensity)); higher = stronger DNA binding
Outline: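 Using an Agilent 4 × 180k array, primer-extended double-stranded 36-bp intergenic genomic probes and negative controls were exposed for 1 h to GST-fused P. falciparum DNA-binding domains expressed in E. coli. Binding was carried out in 1× PBS with 1% milk, 0.2 mg/ml BSA, 0.5% salmon testes DNA and 0.03% Triton X-100, and protein was detected with Alexa488 anti-GST antibody and a 488 nm scan. Binding intensity is the highest Masliner-normalised natural-log median intensity across replicate spots of either probe orientation.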

| Sequence | gcPBM binding intensity (ln) |
| --- | --- |
| CAAAATTGAAGGAACACACATACATATATATATATG [CACACA_site179] | 6.74 |
| ATTTTAAATATTTGTGGTACCCCTTTTTTGTAACAA [XGTACX_site5590] | 6.71 |
| CACATTATGTATCATACACACAAATAAATATAGAAT [CACACA_site609] | 6.96 |
| TATTCTAATATATGCATACACACAAATGTGAATATA [CACACA_site2143] | 6.76 |
| TTTATATGTATTAAGTGTACACATATAATGTGTTTT [XGTACX_site4890] | 6.52 |
| AAAACTATAATAAAAGGTACACATTTATTTTTTTCT [XGTACX_site730] | 6.09 |
| TATTATTTACCTTGCTAGTTCGTTCCAAATTTTATG [XGTACX_negctrl_site197] | 7.19 |
| TTTTTTTTTTTTTTTACACACACAAAATATTATATG [CACACA_site2471] | 6.57 |
| ATGTTTGATGCTACACGTACACACCTTGCAAATATT [XGTACX_site1644] | 7.72 |
| TATATTATTCATTAAGCACACATTATTTTTATAATA [CACACA_site6056] | 6.36 |
| AAAACAAATTTTAATGAGAATATGAAAAAAAAATAT [XGTACX_negctrl_site268] | 6.74 |
| TATATATATAAATACACACACACCCTAAAAATATAT [CACACA_site4970] | 7.35 |
| TTAACATCAAAATATGCACACAAACAATTAGCGGTA [CACACA_site8801] | 9.76 |
| ATATTATGTCTACATAAACACACATATATATAAAAA [CACACA_site7976] | 6.71 |
| AATAGTTATAAATATAAATATATATATATATATATA [CACACA_negctrl_site414] | 9.34 |
| TTACCATAAGTATGTGGTACACTTTAAATGAAGATA [XGTACX_site6972] | 6.28 |
| AATAAATATTCATTTTGTACATATTTTTCGTATATG [XGTACX_site6104] | 6.24 |
| ATAATATTTTTAAACTGTACTTTTATAAACACTTAT [XGTACX_site2625] | 6.46 |
| GTATAACAACTGATAAAAGAAAAAAAATTTATTATT [CACACA_negctrl_site377] | 6.25 |

| Sequence | gcPBM binding intensity (ln) |
| --- | --- |
| ATTTATTTATGTATTTGTACGTATATATTTATGCAT [XGTACX_site5218] | 6.17 |
| TTTTTTTCGTATATTACACACTATAAATAGAAATTA [CACACA_site6278] | 6.68 |
| TCATATTTTACATATGCATGTTAATAATACAAACAT [TGCATGCA_site994] | 6.27 |
| TTTTTGAATGTTTGCACACAAATCTCATAATTTTAG [CACACA_site357] | 10.4 |
| TAGTTACATAAAATATGTACGTATAATTTTTTTATT [XGTACX_site3847] | 6.1 |
| ATAATTTATATCATTACACACATTTTTTATATTTTT [CACACA_site3450] | 6.57 |
| TATTTCACAAACCTTACATGCGGTTTATTTATATAT [TGCATGCA_site123] | 6.59 |
| TTTATTAAATATATATGTACATATCAAAATGTATAA [XGTACX_site3181] | 6.61 |
| TTTTTTTTCTATTGAGCACACATATCACGATTAGTA [CACACA_site7992] | 7.02 |
| GTTAAACATCTTCTGTGATATGTTAGAATATTATTT [CACACA_negctrl_site687] | 6.06 |
| TTAATTTATGTTAATGGTACGTAAATGCATTTATTT [XGTACX_site3002] | 6.48 |
| ATTTAACCAAATAATATATTTAAAAAATAGTCACAT [CACACA_negctrl_site274] | 6.26 |
| TTTTATAATTTGAGAACATGCAACATAAATATAAAG [TGCATGCA_site965] | 6.94 |
| TATAATATATGAAAAAGTACAAATATTTCGATGGTC [XGTACX_site129] | 6.59 |
| TGTTCTAATATTTGTTGTACGTTTACGTTTCTCTCT [XGTACX_site18] | 6.56 |
| AACATTTTAAAATAATGTACTTGAAAAAAAAACTAC [XGTACX_site8894] | 6.65 |
| TATTTAAGAGTATGAACACACATCATACCCATATAA [CACACA_site5911] | 6.27 |
| CATATAAATAAATATACATGCATACATACATATATA [TGCATGCA_site713] | 6.4 |
| ATAACATACATAACAACACACAATATTTATAGGTAT [CACACA_site6243] | 6.96 |

| Sequence | gcPBM binding intensity (ln) |
| --- | --- |
| TATTTTCTCTTAAAAAGTACTCATATATACATTTAT [XGTACX_site7748] | 6.38 |
| TTTAGTTCATACTATGCACACTACGTATATTTTTAA [CACACA_site5484] | 8.95 |
| ATTAATAAGAAGAAAAGTACAAAACAAAAAGATATA [XGTACX_site7473] | 7.08 |
| CGTTATATATTTTATAGTACTTTTTGTAAATTTTTT [XGTACX_site7682] | 6.47 |
| TAACCAAAAAAAAATATTTAAAATAAATATATATAT [CACACA_negctrl_site1516] | 8.26 |
| ATGTCAGGGAAAAAAACACACAAGAGTATGATATGT [CACACA_site2180] | 6.66 |
| ATTTTTATATTTAATACACACATAAAATCATACCAT [CACACA_site23] | 6.95 |
| TTACATATTTTCATTTGTACATATTCATTTTTTTTC [XGTACX_site6988] | 6.47 |
| AAATAACCCACGTGCATGCACTTCAATAACTGAACT | 9.18 |
| TATATATTTATATATTGTACACTCTTATGTAGTGTA [XGTACX_site210] | 6.49 |
| TAAAAAAGAAAAAGAGCACACAAAAATATTTAACCT [CACACA_site8885] | 6.8 |
| TATAATAAATATACTGGTACACAAATATATATATTT [XGTACX_site7741] | 6.41 |
| AACATCTTATCATCATGTACGAAGCAGTTTTATAAG [XGTACX_site2490] | 6.38 |
| TGTAATTTTTTACGTTGTACATATATTAACAATATA [XGTACX_site3991] | 6.21 |
| ATATTATATTTACATAGTACACTATATGTATATATA [XGTACX_site2101] | 6.36 |
| TATGCATATACACAAGCACACATATATATATATATA [CACACA_site8266] | 9.23 |
| AAAAAAATAATATAATATTAAATCTTAGTTAATAAA [GTGCAC_negctrl_site658] | 5.9 |
| AAAAAAAAAAAAAAAAAAACTAATATAATAAAAATA [TGCATGCA_negctrl_site150] | 6.7 |
